# Source: ChEMBL document CHEMBL1201862, “PubChem BioAssay data set” (2004)
# System: NCI-H322M
# Assay: NCI-60 cell line screen, 48 h
row,Compound,GI50
1,CSc1nc2c(c(=O)n1C)N=C(c1ccc(Cl)cc1)CC(c1ccccc1)N2 (stereo unspecified),inactive: 30.7 µM
2,O=C1CC(=O)NC(NN2C(=O)/C(=C/c3ccc(Cl)c(Cl)c3)N=C2c2ccccc2)=N1,inactive: 30.1 µM
3,C=C1C(=O)OC2CC(C)C3C4OC4C(O)C3(C)C(O)C12 (stereo unspecified),inactive: 35.7 µM
4,Cc1cc(/N=C2\C=C(Nc3cc(C)on3)C(=O)c3ccccc32)no1,inactive: > 100 µM
5,CCOC(=O)C1CCCCN1CCc1c[nH]c2ccccc12 (stereo unspecified),inactive: 92.3 µM
6,N#Cc1nc(CCN2C(=O)c3ccccc3C2=O)oc1N,inactive: > 100 µM
7,C=C(CCCO)[C@@H]1CC[C@@](C)(O)[C@H]1C,inactive: > 100 µM
8,NC(=O)/N=C1/CCC2C3CCCC2C13,inactive: > 100 µM
9,CC(=O)N(O)c1ccc(-c2nc3ccccc3s2)cc1,inactive: 97.9 µM
10,O=C(O)c1cc(/N=N/c2ccc([As](=O)(O)O)cc2)ccc1O,inactive: > 100 µM
11,COc1ccc(/C=C2\N=C(N3CCCCC3)NC2=O)cc1,inactive: > 100 µM
12,CCOc1ccc(C2=NN(CC)C(=O)C(C3C(=O)N(c4ccccc4)N=C3C)C2)cc1 (stereo unspecified),inactive: > 100 µM
13,O=C1OC(c2ccccc2)=N/C1=C/NC(Cc1ccccc1)C(=O)O (stereo unspecified),inactive: > 100 µM
14,COc1cc(C2c3cc4c(cc3OC(NNS(=O)(=O)c3ccc(C)cc3)C2C)OCO4)cc(OC)c1OC (stereo unspecified),inactive: 1.3 µM
15,O=C1C2Nc3ccccc3SC2C(=O)N1c1cccc([N+](=O)[O-])c1 (stereo unspecified),inactive: > 100 µM
16,CC(=O)OCC(C)(COC(C)=O)N1C(=O)C2C3c4ccccc4C(c4ccccc43)C2C1=O (stereo unspecified),inactive: > 100 µM
17,COc1ccc(CNc2nc3ccccc3nc2C(=O)O)cc1,inactive: 27.8 µM
18,C=CCOC(C)n1c(C)c(Br)c(=O)[nH]c1=O (stereo unspecified),inactive: > 100 µM
19,COc1ccc2c(c1)[n+]([O-])c(C(=O)CC(=O)C(=O)Nc1cccc(Cl)c1C)c(C)[n+]2[O-],inactive: > 100 µM
20,O=CN(CCN1CCCC1)C1CCc2cc(Cl)c(Cl)cc2C1 (stereo unspecified),inactive: 5.85 µM
21,Cc1ccccc1S(=O)(=O)OC1NS(=O)(=O)c2ccccc21 (stereo unspecified),inactive: > 100 µM
22,COc1cc(/C=C\c2cccnc2)cc(OC)c1OC,inactive: 96.4 µM
23,c1ccc2c(c1)CCN2CCc1c[nH]c2ccccc12,inactive: > 10 µM

row,Compound,GI50
1,COc1ccc(/C(Cl)=C(\CN(C)C)c2ccc(OC)c(OC)c2)cc1OC.[B],inactive: > 100 µM
2,CC/C=C\C/C=C\C/C=C\CCCCCCCC(=O)OCC,inactive: > 100 µM
3,CC1(C)C(=O)/C=C\C(=O)C(C)(C)C2=CC=C(O2)C(C)(C)C(=O)C(Br)C(Br)C(=O)C(C)(C)C2=CC=C1O2 (stereo unspecified),inactive: > 100 µM
4,C(#CC1(Nc2ccccc2)CCN(Cc2ccccc2)CC1)C1(Nc2ccccc2)CCN(Cc2ccccc2)CC1,inactive: > 31.6 µM
5,Cc1ccc(O)c(-c2cc(-c3cccc(Br)c3)c(C#N)c(N)n2)c1,inactive: 29.6 µM
6,CCCCCC(=O)c1ccc2[nH]c3c(C)cc([N+](=O)[O-])c(C)c3c2c1,inactive: > 100 µM
7,CN(C)c1nc(N(C)C)nc(N(C)CN(C)c2nc(N(C)C)nc(N(C)C)n2)n1,inactive: > 100 µM
8,O=C1OC2(c3ccccc3Oc3ccccc32)c2ccccc21,inactive: > 100 µM
9,Cc1ccc2c3c1O[C@H]1c4[nH]c5ccccc5c4C[C@@]4(O)[C@@H](C2)N(CC2CC2)CC[C@]314,inactive: 17.9 µM
10,CCOC(=O)Nn1c(C)nnc1-c1ccccc1,inactive: > 100 µM
11,CN(C)c1n/c(=N/c2cccc(Cl)c2)ss1,inactive: 62.4 µM
12,CC1=C(C#N)C23C(=O)c4ccccc4C(=O)C2=C(O)C=CC3(O)N1 (stereo unspecified),inactive: 20.7 µM
13,OCc1ccc2[n+](c1)CCC1c3ccccc3NC21 (stereo unspecified),inactive: 288 µM
14,COc1cc(C2S/C(=C/c3ccccc3)C(=O)N2c2ccc(NC(C)=O)cc2)cc(OC)c1OC (stereo unspecified),inactive: 21.4 µM
15,N=C(N)C1CN(CCCCCCCCCCN2CC(C(=N)N)C(O)=NC2=O)C(=O)N=C1O (stereo unspecified),inactive: > 10 µM
16,N#Cc1c2ccc([N+](=O)[O-])cc2c(=O)n2c1sc1ccc(C(F)(F)F)cc12,inactive: > 100 µM
17,CCCc1c(OC)c(=O)c2c(O)cc(OC)c3c4c(OC)cc(O)c5c(=O)c(OC)c(CCC)c(c1c23)c54,inactive: 11.3 µM
18,C1=Cc2nc1c(-c1ccccc1)c1ccc([n-]1)c(-c1ccccc1)c1nc(c(-c3ccccc3)c3ccc([n-]3)c2-c2ccccc2)C=C1.[Zn+2],inactive: > 100 µM
19,COC(=O)C1C(C(=O)OC)C1(Br)CBr (stereo unspecified),inactive: > 100 µM
20,Nc1ncnc2c1nc(-c1ccccc1)n2C1OC(CO)C(O)C1O (stereo unspecified),inactive: > 100 µM
21,O=C(c1ccc([N+](=O)[O-])cc1)C(Br)C(Br)c1ccnc2ccccc12 (stereo unspecified),inactive: 14.8 µM
22,COc1cc2c(cc1OC)[C@]1(O)C(=O)c3ccc4c(c3O[C@@H]1CO2)C[C@H](C(C)(C)O)O4,inactive: 8.89 µM
23,CN(C)Cc1cc(C(=O)/C=C/c2ccc(O)cc2)cc(CN(C)C)c1O,inactive: 35.8 µM

#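 Compound exposure: 48 hours, 5 concentrations, 96-well plates. GI50 marks 50% less growth.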 The source made the active and inactive calls. Rule as the data show it: active = GI50 up to about 1.1 µM and inactive = higher.
